Results taken from the supplement of paper PMC4967469.
Lines with a small IC50 respond at low doses; a limit (>, <) means that the fit lies beyond the doses tested. AUC, from the same fit, is the share of area under the viability curve across the 256-fold dose range; the more sensitive the line, the further below 1. For part of these data: Any top dose called inferred comes from the curve model; the source does not state it. For part of these data: Where an entry number is given, a second screen of the drug exists; the two often differ.

Key:
Experiment in all cases: Viability of human cancer cell lines after 72 h of drug (GDSC screen)
[1] = compound: CC/C(=C(\c1ccccc1)c1ccc(OCCN(C)C)cc1)c1ccccc1 [Tamoxifen]; details: top dose 5 µM
Description: (§1)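 Human cancer cell lines in 384-well plates, medium with 10% serum, drug for 72 h over a 256-fold dose range (nine 2-fold or five 4-fold steps up to the top dose). Adherent lines were fixed and stained with the nucleic acid dye Syto60, suspension lines read with resazurin; signal relative to control wells, capped at 0 and 100%. One two-parameter sigmoid per drug and line, fitted in a mixed model over all curves with the slope shared within a line.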

[2] = compound: Cc1ccc(NC(=O)c2ccc(CN3CCN(C)CC3)cc2)cc1Nc1nc(-c2cccnc2)cs1 [Masitinib]; details: top dose 20 µM
Description: as §1

[3] = compound: O=C(Nc1ccc(OC(F)(F)F)cc1)c1sccc1NCc1ccnc2ccccc12 [OSI-930]; details: top dose 10.24 µM
Description: as §1

[4] = compound: Cc1c(N)nc([C@H](CC(N)=O)NC[C@H](N)C(N)=O)nc1C(=O)N[C@H](C(=O)N[C@H](C)[C@@H](O)[C@H](C)C(=O)N[C@H](C(=O)NCCc1nc(-c2nc(C(=O)NCCC[S+](C)C)cs2)cs1)[C@@H](C)O)[C@@H](OC1OC(CO)C(O)C(O)C1OC1OC(CO)C(O)C(OC(N)=O)C1O)c1cnc[nH]1 [Bleomycin]
Description: as §1

[5] = compound: O=C(Nc1cccc(Nc2ncc(Br)c(NCCc3cnc[nH]3)n2)c1)N1CCCC1 [BX-912]; details: top dose 10.24 µM; top dose inferred
Description: as §1

[6] = compound: O=C(/C=C/c1ccc(CN(CCO)CCc2c[nH]c3ccccc23)cc1)NO [LAQ824]; details: top dose 1.024 µM; top dose inferred
Description: as §1

[7] = compound: O=S(=O)(O)c1ccc2cc(N=Nc3cc(S(=O)(=O)O)c4cccnc4c3O)ccc2c1 [NSC-87877]; details: top dose 16 µM; top dose inferred
Description: as §1

[8] = compound: CCCC(=O)OCc1ccc(OC(=O)/C=C(C)/C=C/C=C(C)/C=C/C2=C(C)CCCC2(C)C)cc1 [VNLG/124]; details: top dose 5.12 µM; top dose inferred
Description: as §1

[9] = compound: CN(NC(=O)CC(=O)NN(C)C(=S)c1ccccc1)C(=S)c1ccccc1 [Elesclomol]; details: top dose 0.2 µM; top dose inferred
Description: as §1

[10] = top dose 50 µM, screen: GDSC drug entry 1378, top dose inferred
[11] = top dose 64 µM, screen: GDSC drug entry 190

Cell Line	AUC [1]	IC50 [1]	AUC [2]	IC50 [2]	AUC [3]	IC50 [3]	AUC [4, 10]	IC50 [4, 10]	AUC [4, 11]	IC50 [4, 11]	AUC [5]	IC50 [5]	AUC [6]	IC50 [6]	AUC [7]	IC50 [7]	AUC [8]	IC50 [8]	AUC [9]	IC50 [9]
EM-2 (chronic myeloid leukaemia, suspension)	0.919	> 5 µM	0.293	0.3 µM	0.868	> 10.2 µM	0.88	> 50 µM	0.874	> 64 µM	0.712	2.78 µM	0.58	0.109 µM	0.981	> 16 µM	0.918	> 5.12 µM	0.915	> 0.2 µM
HA7-RCC (kidney, adherent)	0.932	> 5 µM	0.904	> 20 µM	0.982	> 10.2 µM	0.418	1.82 µM	0.152	0.29 µM	0.9	> 10.2 µM	0.345	0.0226 µM	0.983	> 16 µM	0.982	> 5.12 µM	0.388	0.00593 µM
A3-KAW (B-cell lymphoma, suspension)	0.978	> 5 µM	0.895	15.6 µM	0.908	9.06 µM	0.347	1.3 µM	0.226	0.793 µM	0.783	3.42 µM	0.287	0.0186 µM	0.992	> 16 µM	0.985	> 5.12 µM	0.905	0.172 µM
H2373 (mesothelioma, adherent)	0.981	> 5 µM	0.983	> 20 µM	0.98	> 10.2 µM	0.529	3.82 µM	0.428	2.41 µM	0.982	> 10.2 µM	0.555	0.0939 µM	0.919	> 16 µM	0.97	> 5.12 µM	0.677	0.0445 µM
LC4-1 (lymphoblastic leukaemia, suspension)	0.972	> 5 µM	0.803	11.2 µM	0.94	> 10.2 µM	0.824	34.1 µM	0.676	13.1 µM	0.664	1.92 µM	0.243	0.0106 µM	0.982	> 16 µM	0.882	> 5.12 µM	0.872	> 0.2 µM
EFO-21 (ovary, adherent)	0.963	> 5 µM	0.956	> 20 µM	0.971	> 10.2 µM	0.885	> 50 µM	0.496	3.89 µM	0.848	> 10.2 µM	0.519	0.0739 µM	0.977	> 16 µM	0.968	> 5.12 µM	0.806	0.161 µM
SCC-9 (head and neck, adherent)	0.977	> 5 µM	0.869	> 20 µM	0.902	> 10.2 µM	0.774	25.2 µM	0.939	> 64 µM	0.909	> 10.2 µM	0.791	0.606 µM	0.978	> 16 µM	0.953	> 5.12 µM	0.792	–
PE/CA-PJ15 (head and neck, adherent)	0.979	> 5 µM	0.977	> 20 µM	0.982	> 10.2 µM	0.247	0.544 µM	0.86	60.6 µM	0.957	> 10.2 µM	0.527	0.0761 µM	0.986	> 16 µM	0.98	> 5.12 µM	0.746	0.0677 µM
MS-1 (small cell lung carcinoma, suspension)	0.99	> 5 µM	0.826	10.4 µM	0.968	> 10.2 µM	0.978	> 50 µM	0.954	> 64 µM	0.916	> 10.2 µM	0.302	0.0191 µM	0.991	> 16 µM	0.989	> 5.12 µM	0.922	> 0.2 µM
KMRC-1 (kidney, adherent)	0.952	> 5 µM	0.981	> 20 µM	0.972	> 10.2 µM	0.761	18.8 µM	0.853	55 µM	0.978	> 10.2 µM	0.79	0.488 µM	0.974	> 16 µM	0.985	> 5.12 µM	0.766	0.078 µM
NCI-H727 (lung carcinoid, adherent)	0.973	> 5 µM	0.889	> 20 µM	0.963	> 10.2 µM	0.957	> 50 µM	0.575	7.33 µM	0.954	> 10.2 µM	0.306	0.0126 µM	0.927	> 16 µM	0.977	> 5.12 µM	0.927	> 0.2 µM
Ramos-2G6-4C10 (Burkitt lymphoma, suspension)	0.977	> 5 µM	0.862	13.2 µM	0.941	> 10.2 µM	0.989	> 50 µM	0.657	10.1 µM	0.711	2.27 µM	0.354	0.0269 µM	0.983	> 16 µM	0.985	> 5.12 µM	0.403	0.00705 µM
Hep 3B2_1-7 (liver, adherent)	0.928	> 5 µM	0.953	> 20 µM	0.974	> 10.2 µM	0.611	6.29 µM	0.143	0.307 µM	0.944	> 10.2 µM	0.308	0.0185 µM	0.966	> 16 µM	0.969	> 5.12 µM	0.451	0.00917 µM
NCI-H526 (small cell lung carcinoma, suspension)	0.986	> 5 µM	0.889	> 20 µM	0.989	> 10.2 µM	0.907	> 50 µM	0.3	1.13 µM	0.807	4.97 µM	0.382	0.0308 µM	0.985	> 16 µM	0.989	> 5.12 µM	0.973	> 0.2 µM
TE-6 (oesophagus, adherent)	0.979	> 5 µM	0.892	> 20 µM	0.959	> 10.2 µM	0.927	> 50 µM	0.671	13.1 µM	0.944	> 10.2 µM	0.537	0.082 µM	0.978	> 16 µM	0.98	> 5.12 µM	0.788	0.105 µM
CPC-N (small cell lung carcinoma, suspension)	0.926	> 5 µM	0.922	> 20 µM	0.974	> 10.2 µM	0.897	> 50 µM	0.837	48.5 µM	0.862	10.1 µM	0.424	0.0389 µM	0.978	> 16 µM	0.985	> 5.12 µM	0.961	> 0.2 µM
EW-18 (Ewing sarcoma, suspension)	0.981	> 5 µM	0.854	17.5 µM	0.943	> 10.2 µM	0.95	> 50 µM	0.809	36.3 µM	0.387	0.306 µM	0.4	0.0333 µM	0.982	> 16 µM	0.878	> 5.12 µM	0.829	0.136 µM
SW756 (cervix, adherent)	0.983	> 5 µM	0.967	> 20 µM	0.966	> 10.2 µM	0.439	2.06 µM	0.637	10.3 µM	0.984	> 10.2 µM	0.704	0.27 µM	0.91	> 16 µM	0.969	> 5.12 µM	0.369	0.00505 µM
PANC-03-27 (pancreas, adherent)	0.987	> 5 µM	0.884	19.2 µM	0.944	> 10.2 µM	0.222	0.515 µM	0.206	0.586 µM	0.946	> 10.2 µM	0.595	0.114 µM	0.987	> 16 µM	0.988	> 5.12 µM	0.672	0.0363 µM
NCI-H838 (lung adenocarcinoma, adherent)	0.982	> 5 µM	0.943	> 20 µM	0.945	> 10.2 µM	0.174	0.305 µM	0.565	6.06 µM	0.982	> 10.2 µM	0.653	0.174 µM	0.959	> 16 µM	0.987	> 5.12 µM	0.431	0.00806 µM
SCH (stomach, adherent)	0.983	> 5 µM	0.971	> 20 µM	0.978	> 10.2 µM	0.531	3.83 µM	0.957	> 64 µM	0.988	> 10.2 µM	0.789	0.49 µM	0.988	> 16 µM	0.978	> 5.12 µM	0.875	> 0.2 µM
COR-L279 (small cell lung carcinoma, suspension)	0.986	> 5 µM	0.798	8.38 µM	0.955	> 10.2 µM	0.722	12.3 µM	0.771	22 µM	0.658	1.66 µM	0.478	0.056 µM	0.991	> 16 µM	0.991	> 5.12 µM	0.975	> 0.2 µM
OE33 (oesophagus, adherent)	0.967	> 5 µM	0.887	> 20 µM	0.984	> 10.2 µM	0.861	> 50 µM	0.411	2.17 µM	0.984	> 10.2 µM	0.459	0.0484 µM	0.984	> 16 µM	0.983	> 5.12 µM	0.981	> 0.2 µM
